According to PubChem BioAssay AID1963576 (National Center for Advancing Translational Sciences (NCATS), 2024):
Hit rate of the full screen: of about 46,000 compounds, about 60 (0.1%) were called active. Not shown: some 3% with an inconclusive outcome. Calls follow the shape of the dose curve; as a rule, active = well fitted inhibition curve with a large enough effect; inconclusive = small, poorly fitted or top-dose-only effect; inactive = no such curve, though single readings can be large or run the other way. The list shows a part of the results.

Experiment: Primary qHTS assay for Inhibitors of ovarian cancer metastasis using an organotypic tumor microenvironment (TME) model. Also: nearly all actives have a fitted effect of over 65% in size.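 As to activity change, negative = inhibition: plate controls were DMSO wells for no effect and tomatine positive control wells for full effect.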
Conditions: SKOV3ip1-GFP adhesion/invasion on 3D omental model, fluorescence; series mostly up to 45.8 µM; activity change, negative = inhibition: at the top concentration
Method in brief: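 A 3D layer of primary human omental fibroblasts, mesothelial cells, fibronectin and collagen I, grown 48 hr, received SKOV3ip1-GFP cells in serum-free medium plus compounds at 0.36-46 umol/L. After 2 hr RT and 16 hr 37 C, fixed adherent GFP cells were counted; normalized to DMSO and tomatine.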

Activity change, negative = inhibition, inactive:
CN1CCN(c2nc3c(S(=O)(=O)c4ccc(Br)cc4)nnn3c3ccsc23)CC1 -3.23%
Oc1ccc(Cl)cc1C1=Nc2ccccc2N=C(c2cccc(Br)c2)C1 -24.9%
CCC(Oc1ccccc1)C(=O)Nc1ccc2oc(-c3ccc(OC)cc3)nc2c1 (stereo unspecified) -1.91%
Cc1cccc(CSc2cn(CC(=O)N3CCCC3)c3ccccc23)c1 7.03%
CCc1ccc2oc(-c3cccc(NC(=O)c4ccc(N5CCC(C)CC5)c([N+](=O)[O-])c4)c3)nc2c1 7.02%
Cc1ccccc1CNC(=O)Cn1ncn2nc(-c3cccs3)cc2c1=O -10.4%
COc1cccc(NC(=O)Cn2cc(S(=O)(=O)N3CCCC3)c(S(=O)(=O)N3CCCC3)c2)c1 5.91%
CCOc1cccc(CC(=O)N2CCc3c([nH]c4ccccc34)C2c2ccc(F)cc2)c1OCC (stereo unspecified) -3.41%
CCOc1ccc(N(CC)S(=O)(=O)N2CCCC(C(=O)NCc3ccccc3Cl)C2)cc1 (stereo unspecified) -0.481%
Cc1ccc(CNC(=O)CSCc2ccc(F)cc2)cc1 3.96%
O=C(COc1ccc(S(=O)(=O)NC2CCCCC2)cc1)Nc1ccc(C(F)(F)F)cc1 -7.25%
CCc1ccccc1NC(=O)c1ccc2nc(CCc3ccccc3)oc2c1 7.44%
Cc1ccc(C(=O)COC(=O)C(CC(C)C)NC(=O)C2CCC(C)CC2)cc1 (stereo unspecified) -4.59%
CCOc1ccc(CC(=O)Nc2c(C(=O)c3ccc(C)cc3)oc3ccccc23)cc1OCC 7.42%
Cc1ccccc1-c1nc(CS(=O)(=O)CC(=O)N2CCN(c3ccccc3)CC2)c(C)o1 9.89%
CCOc1ccc(NS(=O)(=O)c2cc(Br)cc3c2N(C(=O)C2CC2)CC3)cc1 9.54%
CCCN(CCC)CCCNC(=O)C1CCCN(S(=O)(=O)c2cccc3nsnc23)C1 (stereo unspecified) 0.54%
Cn1c(=O)cc(OCCCC(=O)Nc2ccc(F)cc2)c2ccccc21 5.1%

outcome, inactive:
CCOc1ccccc1CNC(=O)c1cc2cc(S(=O)(=O)N3CCCCC3)ccc2n1C
CC(=O)Nc1ccc(NC(=O)CCNS(=O)(=O)c2cccc3nsnc23)cc1
O=S(=O)(c1ccccc1)n1nc(-c2ccccc2)nc1NCc1ccc(Cl)cc1
Cc1cc(N2CCCCC2)nc2ccc(NC(=O)/C=C/c3ccccc3OC(C)C)cc12
O=C(Cc1cccc([N+](=O)[O-])c1)NCc1nc2cccnc2n1Cc1ccc(F)cc1
COc1cc(C2N=C(N)Nc3nc4ccccc4n32)ccc1OCCC(C)C (stereo unspecified)
CCCCNC(=O)CCn1c(=O)c2ccccc2n(Cc2ccccc2C#N)c1=O
CCC(=O)N1CCc2cc(Br)cc(S(=O)(=O)N3CCCC(C(=O)Nc4cccc(Cl)c4C)C3)c21 (stereo unspecified)
